Source: the supplement of paper PMC12217912
Some of the results follow. The full chains were built here from the parent and the listed change. Inactive controls read about 0.05.

B1: TEV protease; numbered along this chain (parent)
chain: MGESLFKGPRDYNPISSSICHLTNESDGHTTSLYGIGFGPFIITNKHLFRRNNGTLVVQSLHGVFKVKDTTTLQQHLVDGRDMIIIRMPKDFPPFPQKLKFREPQREERICLVTTNFQTKSMSSMVSDTSCTFPSGDGIFWKHWIQTKDGQCGSPLVSTRDGFIVGIHSASNFTNTNNYFTSVPKNFMELLTNQEAQQWVSGWRLNADSVLWGGHKVFMVKPEEPFQPVKEATQL

Variants of: B1
Assay: raw area under fraction-flipped curve 0-4 h after induction (AUC4h, not background-subtracted), DNA-recorder readout of cleavage of the substrate (dimensionless); higher = more cleavage of the substrate by the protease variant
Settings: temperature: 34 °C; time window: 0-4 h after rhamnose induction
Description: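 In vivo DNA recorder in E. coli TOP10(DE3) ΔrhaA at 34 °C. Each TEVp single-site mutant (parent TEVp 0) is paired with a single-site variant of the 7-mer TEVs (canonical ENLYFQ|S). The substrate sits between flexible linkers in a Bxb1-sfGFP-TEVs-SsrA fusion, so cleavage stabilises Bxb1 and speeds flipping of a recombination array, read by NGS. The value is the raw area under the fraction-flipped curve over 0-4 h after rhamnose induction (AUC4h), with ≥20 reads per time point. It is not background-subtracted; inactive controls average about 0.047.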
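Note: Bxb1 expression induced with 0.2% (w/v) L-rhamnose at OD600 near 0.5, cultures sampled hourly, flipped fraction per protease–substrate barcode pair counted by paired-end Illumina sequencing.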

| Variant | area with substrate ENLYFQA | area with substrate ENLYFQC | area with substrate ENLYFQH | area with substrate ENLYFQI | area with substrate ENLYFQN | area with substrate ENLYFQP | area with substrate ENLYFQQ | area with substrate ENLYFQR | area with substrate ENLYFQS | area with substrate ENLYFQT | area with substrate ENLYFQD | area with substrate ENLYFQE | area with substrate ENLYFQL | area with substrate ENLYFQM | area with substrate ENLYFQW | area with substrate ENLYFQG | area with substrate ENLYFQK | area with substrate ENLYFQV | area with substrate ENLYFQY | area with substrate ENLYFQF |
| --- | --- | --- | --- | --- | --- | --- | --- | --- | --- | --- | --- | --- | --- | --- | --- | --- | --- | --- | --- | --- |
| G153H | 0.048 | 0.0478 | 0.0472 | 0.0366 | 0.0472 | 0.0466 | 0.0254 | 0.0418 | 0.0489 | 0.0474 | – | – | – | – | – | – | – | – | – | – |
| G153D | 0.0345 | 0.0388 | 0.045 | – | – | – | – | – | 0.0452 | – | 0.0444 | 0.0557 | 0.0704 | 0.0616 | 0.0478 | – | – | – | – | – |
| D137W | 0.0779 | – | 0.0653 | 0.0705 | 0.0589 | – | – | – | 0.0957 | 0.0787 | 0.0687 | – | 0.0495 | – | 0.0524 | 0.0796 | 0.0441 | 0.0504 | 0.056 | – |
| G162E | 0.0902 | 0.106 | – | 0.0613 | – | 0.0551 | – | 0.054 | 0.0921 | 0.0622 | 0.0484 | – | 0.0787 | 0.0639 | 0.0594 | – | – | – | – | 0.0792 |
| G162T | 0.0886 | 0.118 | – | 0.0381 | 0.0664 | – | – | – | 0.0907 | – | – | – | 0.0554 | 0.0772 | – | 0.0755 | – | – | 0.0739 | 0.0752 |
| G162Q | 0.0842 | 0.0928 | – | – | 0.087 | – | 0.077 | 0.0777 | 0.0995 | 0.0536 | 0.0621 | – | 0.0594 | 0.0828 | 0.0619 | 0.103 | 0.0687 | 0.0545 | 0.0655 | 0.0615 |
| G162Y | 0.0986 | 0.0835 | 0.0722 | – | – | 0.0506 | 0.0877 | 0.0547 | 0.0819 | 0.06 | 0.0511 | – | 0.0557 | 0.0483 | – | – | 0.0604 | 0.0593 | 0.0684 | – |
| I167P | 0.0618 | 0.0497 | 0.051 | 0.0509 | 0.0509 | – | – | 0.0473 | 0.0511 | – | – | 0.0437 | 0.0585 | 0.0519 | 0.0444 | – | – | 0.034 | 0.0488 | – |
| I167L | 0.094 | 0.177 | 0.0871 | – | 0.0695 | – | 0.0619 | 0.0541 | 0.109 | – | – | – | 0.0417 | 0.0841 | 0.0629 | 0.104 | 0.0348 | 0.0607 | 0.0757 | 0.0723 |
| I167Q | 0.06 | 0.0631 | – | 0.0423 | – | 0.0535 | – | – | 0.0779 | 0.0452 | – | – | – | – | – | 0.0785 | – | – | – | 0.134 |
| F163C | 0.093 | – | – | – | – | – | – | – | 0.11 | 0.0758 | – | – | 0.0709 | – | – | – | – | – | – | – |
| Y179G | 0.0565 | – | – | – | – | 0.0524 | – | – | 0.0536 | – | – | – | – | – | – | 0.0651 | 0.0561 | – | – | – |
| Y179H | 0.064 | 0.0574 | 0.0551 | – | – | 0.0344 | – | 0.0587 | 0.0598 | 0.0557 | – | 0.0745 | 0.0565 | – | 0.0627 | 0.072 | – | – | 0.0641 | – |
| K185R | 0.118 | 0.0851 | – | 0.0615 | 0.0668 | – | 0.0757 | 0.0526 | 0.105 | 0.0638 | – | – | – | – | 0.0564 | – | 0.08 | – | 0.0702 | 0.0801 |
| G166H | 0.0479 | 0.0524 | – | 0.0506 | 0.0797 | – | 0.0699 | 0.058 | 0.0513 | 0.0463 | 0.0431 | – | 0.0478 | – | 0.0476 | 0.0803 | 0.0591 | 0.0538 | – | 0.0425 |
| A170L | 0.056 | 0.0601 | – | – | 0.0133 | 0.0532 | – | – | 0.0634 | 0.0655 | – | – | 0.0623 | – | 0.0603 | 0.0515 | – | – | 0.0577 | – |
| S130A | 0.106 | 0.0953 | 0.0679 | 0.0623 | 0.0713 | 0.0569 | – | 0.0768 | 0.095 | 0.072 | – | – | 0.0668 | 0.0989 | 0.0586 | 0.0836 | 0.0758 | 0.07 | 0.0719 | – |
| P134M | 0.111 | 0.106 | 0.0755 | 0.0563 | – | – | – | 0.0624 | 0.0942 | 0.0661 | – | – | – | 0.0894 | 0.0722 | – | 0.0727 | 0.0651 | – | – |
| D161N | 0.0829 | 0.0767 | 0.123 | 0.0292 | 0.0993 | – | – | 0.0566 | 0.0757 | 0.0051 | 0.0504 | – | 0.0526 | 0.0676 | 0.07 | 0.0772 | 0.0608 | 0.0528 | 0.0577 | – |
| D161L | 0.0678 | 0.0639 | 0.0665 | 0.0539 | 0.0702 | 0.0453 | 0.0421 | 0.0579 | 0.058 | 0.0413 | 0.0415 | – | 0.0608 | 0.0504 | 0.0503 | 0.056 | 0.0547 | 0.0515 | 0.0485 | 0.0357 |
| T129R | 0.106 | – | – | 0.0594 | 0.0803 | 0.0684 | 0.0854 | 0.0555 | 0.0994 | – | 0.0832 | – | 0.0642 | 0.0778 | 0.0672 | – | – | 0.0462 | – | – |
| S127N | 0.116 | – | 0.0844 | – | 0.083 | 0.0571 | 0.0615 | 0.0653 | 0.108 | 0.0666 | 0.0817 | – | 0.0471 | 0.0912 | 0.0757 | – | 0.0691 | 0.0608 | 0.0988 | – |
| S127R | 0.103 | 0.129 | 0.0806 | – | 0.103 | 0.0668 | – | 0.0583 | 0.112 | 0.0412 | – | – | – | 0.111 | 0.0572 | – | – | – | 0.0757 | 0.0765 |
| F173P | 0.0862 | 0.0999 | 0.078 | – | 0.0557 | – | 0.0491 | 0.0515 | 0.0856 | – | – | – | 0.0535 | – | – | – | – | 0.0626 | 0.058 | – |
| G150M | 0.0571 | 0.0524 | – | 0.0634 | – | – | – | 0.0507 | 0.0613 | 0.0676 | – | 0.0451 | 0.0583 | 0.0569 | 0.0537 | – | 0.0631 | 0.0302 | – | – |
| G150S | 0.066 | 0.0224 | 0.0476 | – | 0.0588 | – | – | 0.0669 | 0.0612 | 0.0728 | 0.0416 | – | 0.0412 | 0.0748 | – | – | – | – | – | – |
| V165K | 0.0536 | 0.0462 | – | 0.0539 | 0.057 | 0.0606 | 0.0563 | 0.0536 | 0.056 | 0.0586 | – | – | 0.0645 | 0.0571 | – | – | 0.0437 | 0.049 | 0.044 | 0.049 |
| V165H | 0.0538 | 0.0839 | – | – | 0.043 | – | – | 0.0388 | 0.0542 | 0.0544 | – | – | 0.0577 | 0.0479 | – | – | – | 0.0457 | – | – |
| V126K | 0.0919 | 0.122 | 0.0749 | 0.0472 | 0.0752 | – | – | 0.0705 | 0.102 | – | – | – | 0.0567 | 0.0972 | – | 0.095 | – | – | 0.0954 | – |
